# This is one part of the list. Values were computed here from the reads of four pooled replicates and scatter widely.
# Molecular target: T1, Pho4 (S. cerevisiae) (UniProt P07270)
# T1 sequence: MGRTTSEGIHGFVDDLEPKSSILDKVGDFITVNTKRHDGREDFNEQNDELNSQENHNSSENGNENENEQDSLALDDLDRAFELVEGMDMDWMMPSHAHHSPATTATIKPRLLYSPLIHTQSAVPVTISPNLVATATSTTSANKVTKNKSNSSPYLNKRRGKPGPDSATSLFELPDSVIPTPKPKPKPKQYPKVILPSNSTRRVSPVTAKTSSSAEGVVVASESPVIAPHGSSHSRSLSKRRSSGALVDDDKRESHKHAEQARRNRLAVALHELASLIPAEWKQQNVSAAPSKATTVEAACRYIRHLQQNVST
# Test: relative binding free energy (BET-seq); higher = weaker binding
# Details: reference: library average
row,Sequence,relative binding free energy
1,GGGGGCACGTGAATAA,0.08 kcal/mol
2,TTGTCCACGTGATTAT,0.3 kcal/mol
3,TTAGGCACGTGAGGGG,0.14 kcal/mol
4,TGTCACACGTGGTTTA,0 kcal/mol
5,TGTTTCACGTGACTGA,0.47 kcal/mol
6,AAGGACACGTGAGTTT,0.23 kcal/mol
7,AGTGGCACGTGAGGTG,0.1 kcal/mol
8,ATGGTCACGTGTGAGC,0.11 kcal/mol
9,CGGATCACGTGGATGG,0.05 kcal/mol
10,TTTGCCACGTGCGGTT,-0.13 kcal/mol
11,TATATCACGTGCTGAG,0.14 kcal/mol
12,TTTAGCACGTGGTACG,-0.21 kcal/mol
13,AATGGCACGTGAACGT,0.06 kcal/mol
14,TGCGTCACGTGGATCG,0.06 kcal/mol
15,GTCAGCACGTGGTAGT,-0.01 kcal/mol
16,GTGTTCACGTGGCATA,0.07 kcal/mol
17,TGCGCCACGTGGATGG,-0.12 kcal/mol
18,ATCAACACGTGGGGTG,-0.26 kcal/mol
19,TGTCTCACGTGTCGGT,0.23 kcal/mol
20,GTGGACACGTGTTTGA,-0.07 kcal/mol
21,TGCCTCACGTGTGTGG,0.28 kcal/mol
22,GTTGACACGTGGGGAG,-0.02 kcal/mol
23,GGTGACACGTGTGCAG,0.13 kcal/mol

row,Sequence,relative binding free energy
1,ATTTGCACGTGTTAGG,0.08 kcal/mol
2,GTGAGCACGTGTATGT,-0.04 kcal/mol
3,GGGCGCACGTGTGAGT,0.01 kcal/mol
4,TTTGTCACGTGTATGA,0.13 kcal/mol
5,GGTGCCACGTGTTGAG,-0.01 kcal/mol
6,CGTGTCACGTGATTCG,0.29 kcal/mol
7,TGTTTCACGTGAATGA,0.28 kcal/mol
8,TGAAGCACGTGGGGGG,-0.21 kcal/mol
9,CAGGTCACGTGTGATG,0.24 kcal/mol
10,TCTATCACGTGTGAGG,0.16 kcal/mol
11,GAGGTCACGTGTGAGT,0.23 kcal/mol
12,GTAGTCACGTGGAGGT,0.22 kcal/mol
13,TATAGCACGTGTATAG,0.02 kcal/mol
14,CTTCGCACGTGAGAGG,0.24 kcal/mol
15,GGCATCACGTGTGTGT,0.21 kcal/mol
16,AGCTCCACGTGTTGTG,0.05 kcal/mol
17,TGCTGCACGTGGTAAG,-0.12 kcal/mol
18,GTTGGCACGTGAAAGA,0.24 kcal/mol
19,GGGGCCACGTGGTAGA,-0.2 kcal/mol
20,AGTTTCACGTGGGACG,0.29 kcal/mol
21,CGTTTCACGTGGGCAT,0.23 kcal/mol
22,ATTAACACGTGATAGG,0.21 kcal/mol
23,TAGGCCACGTGGTGAA,-0.12 kcal/mol

row,Sequence,relative binding free energy
1,GCGTGCACGTGGCGGG,-0.09 kcal/mol
2,TAATGCACGTGTTGAC,0.1 kcal/mol
3,TATGGCACGTGGAGTC,-0.15 kcal/mol
4,ACGGACACGTGAGGTT,0.3 kcal/mol
5,AAGGACACGTGGGAGT,-0.09 kcal/mol
6,ATAGTCACGTGAGTGA,0.27 kcal/mol
7,TAAAGCACGTGTGGGA,0.07 kcal/mol
8,GAGGCCACGTGTAAGT,0.19 kcal/mol
9,TATTCCACGTGGTTTA,0.06 kcal/mol
10,TAAAGCACGTGTCGGT,-0.02 kcal/mol
11,TGTTACACGTGCGAGA,0.24 kcal/mol
12,TAGGACACGTGTTAAT,-0.03 kcal/mol
13,GAGAGCACGTGATGGG,0.03 kcal/mol
14,GAGGGCACGTGAGGCG,0.21 kcal/mol
15,TAGAGCACGTGGGAAA,-0.06 kcal/mol
16,AGGGGCACGTGGTGAG,-0.21 kcal/mol
17,GGGTCCACGTGTTTAT,0 kcal/mol
18,GGAGGCACGTGCTTAA,0.04 kcal/mol
19,TCGAACACGTGAGGTT,0.22 kcal/mol
20,ATCGGCACGTGTAGTT,0.06 kcal/mol
21,ATATACACGTGGTTTC,0.06 kcal/mol
22,GAGGGCACGTGAACGG,0.12 kcal/mol
23,CTAGTCACGTGGAGTT,-0.08 kcal/mol

row,Sequence,relative binding free energy
1,AGTGTCACGTGTGGCG,0.11 kcal/mol
2,CGCTGCACGTGGTGGG,-0.16 kcal/mol
3,GGAGGCACGTGATTAA,0.04 kcal/mol
4,TGAGTCACGTGCCGGG,0.02 kcal/mol
5,TAGTGCACGTGACAGG,0.16 kcal/mol
6,AGTGGCACGTGTATAT,-0.01 kcal/mol
7,TTTAGCACGTGTTTTG,-0.1 kcal/mol
8,GTGGGCACGTGGACAG,-0.14 kcal/mol
9,AAGTACACGTGTATGT,-0.16 kcal/mol
10,TGGTGCACGTGGCGGG,-0.04 kcal/mol
11,AAGTGCACGTGCTGTG,-0.04 kcal/mol
12,CGTGACACGTGTTGTA,-0.05 kcal/mol
13,GAAGACACGTGTGTTG,-0.14 kcal/mol
14,TTTTTCACGTGTACTT,0.27 kcal/mol
15,TTTAACACGTGGGGAT,-0.01 kcal/mol
16,ATAGACACGTGAGGGA,0.23 kcal/mol
17,GTGGCCACGTGCGTGA,-0.07 kcal/mol
18,AAGTGCACGTGCCTGG,-0.12 kcal/mol
19,GGAGGCACGTGACTGT,0.11 kcal/mol
20,GGTTTCACGTGCCGGG,0.27 kcal/mol
21,TTTCGCACGTGGGCTT,-0.21 kcal/mol
22,TTGTTCACGTGCTGAA,0.12 kcal/mol
23,TACGTCACGTGTTGCT,0.06 kcal/mol

row,Sequence,relative binding free energy
1,GAGTCCACGTGATGTG,0.23 kcal/mol
2,GAAGGCACGTGATGCG,0 kcal/mol
3,AATTGCACGTGTTGGT,0.11 kcal/mol
4,ATGAACACGTGGAATG,0.11 kcal/mol
5,TGTTTCACGTGGAGAT,0.19 kcal/mol
6,TCGTGCACGTGCGAGT,-0.11 kcal/mol
7,TGTGCCACGTGCGGGC,-0.11 kcal/mol
8,TTTGTCACGTGTGTAT,0.17 kcal/mol
9,GGTTGCACGTGGTCTT,-0.08 kcal/mol
10,AGGTTCACGTGAGTAT,0.41 kcal/mol
11,TGAGTCACGTGGTTGT,0.13 kcal/mol
12,AGTTTCACGTGAGGCG,0.31 kcal/mol
13,AGAGTCACGTGGTGGC,0.08 kcal/mol
14,ATGGGCACGTGAGGCA,0.07 kcal/mol
15,ATTTACACGTGGCATG,0.06 kcal/mol
16,GAGCACACGTGGTGTG,-0.1 kcal/mol
17,ATTTGCACGTGGGACA,-0.09 kcal/mol
18,AAAGTCACGTGAGGAT,0.27 kcal/mol
19,TTTGTCACGTGCGGAG,0.1 kcal/mol
20,TGGGCCACGTGTATGC,0.04 kcal/mol
21,GTTGTCACGTGTCGTG,0.09 kcal/mol
22,GTTTGCACGTGCTTTA,0 kcal/mol
23,AAGGTCACGTGACGGT,0.27 kcal/mol
